According to the RNAGym collection of RNA variant scans (doi:10.7554/elife.90254):
The source gives no read counts; variants with many changes may rest on few reads.

B1: OR4K15 (parent)
chain: GUUAACGGUCAUAGGCCAUGGAAACUAGGAGCACCAUUUCGCUGCCAGUGAAGAAAUGAACAAAGAAAAUCUGGGCCAGGCAGGCAUCAAAAGAAAUAGUCUUGCGCUCAACCAGAAAGUCUGUAAUCAUUUUAAGGGUA

Variants of: B1
Assay: self-cleavage, relative activity (ratio to wild type); higher = more cleavage; in vitro, sequencing; the parent is a self-cleaving ribozyme

Variant	self-cleavage
GUUAACGGUCAUAGGCCAUGGAAACUAGGAGCACCAUUUCGCUGCCAGUGAAGAAAUGAACAAAGAAAAUCUGGGCCAGGCAGGCAUCAAAAGAAAUAGUCUUGCGCUCAACCAGAAAGUCAGUAAUCAUCUUAAUCGUA [U122A U131C G136U G137C]	0
GUUAACGGUCAUAGGCCAUGGAAACUAGGAGCACCAUUUCGCUGCCAGUGAAGAAAUGAACAAAGAAAAUCUGGGCCAGGCAGGCAUCAAAAGAAAUAGUCUUGCGCUCAACCAGAAAGACUGUAAUCAUCUUAGGGGUA [U120A U131C A135G]	1.99
GUUAACGGUCAUAGGCCAUGGAAACUAGGAGCACCAUUUCGCUGCCAGUGAAGAAAUGAACAAAGAAAAUCUGGGCCAGGCAGGCAUCAAAAGAAAUAGUCUUGCGCUCAACCAGAAAGUCUGUAGUCACUUUAAGGGUG [A126G U130C A140G]	0.25
GUUAACGGUCAUAGGCCAUGGAAACUAGGAGCACCAUUUCGCUGCCAGUGAAGAAAUGAACAAAGAAAAUCUGGGCCAGGCAGGCAUCAAAAGAAAUAGUCUUGCGCUCAACCAGAAAGUCUGUAAUUACGUUAAGGGUA [C128U U130C U131G]	1.74
GUUAACGGUCAUAGGCCAUGGAAACUAGGAGCACCAUUUCGCUGCCAGUGAAGAAAUGAACAAAGAAAAUCUGGGCCAGGCAGGCAUCAAAAGAAAUAGUCUUGCGCUCAACCAGAAAGCCUGUAAUCACUUUAAGGGUG [U120C U130C A140G]	1.12
GUUAACGGUCAUAGGCCAUGGAAACUAGGAGCACCAUUUCGCUGCCAGUGAAGAAAUGAACAAAGAAAAUCUGGGCCAGGCAGGCAUCAAAAGAAAUAGUCUUGCGCUCAACCAGAAAGUCUGCAGCCAUUUUAAGGGUA [U124C A126G U127C]	0.23
GUUAACGGUCAUAGGCCAUGGAAACUAGGAGCACCAUUUCGCUGCCAGUGAAGAAAUGAACAAAGAAAAUCUGGGCCAGGCAGGCAUCAAAAGAAAUAGUCUUGCGCUCAACCAGAAAGUCUGCAAUCAUCUUAAGGGUG [U124C U131C A140G]	0.03
GUUAACGGUCAUAGGCCAUGGAAACUAGGAGCACCAUUUCGCUGCCAGUGAAGAAAUGAACAAAGAAAAUCUGGGCCAGGCAGGCAUCAAAAGAAAUAGUCUUGCGCUCAACCAGAAAGUCGGUAAUUGUUUUAAGGGUA [U122G C128U A129G]	2.45
GUUAACGGUCAUAGGCCAUGGAAACUAGGAGCACCAUUUCGCUGCCAGUGAAGAAAUGAACAAAGAAAAUCUGGGCCAGGCAGGCAUCAAAAGAAAUAGUCUUGCGCUCAACCAGAAAGGCCGUAAUCAUUUUAGGGGUA [U120G U122C A135G]	0.95
GUUAACGGUCAUAGGCCAUGGAAACUAGGAGCACCAUUUCGCUGCCAGUGAAGAAAUGAACAAAGAAAAUCUGGGCCAGGCAGGCAUCAAAAGAAAUAGUCUUGCGCUCAACCAGAAAGCCCGUAAUCGUUUUAAGGGUA [U120C U122C A129G]	0.46
